# Data: PubChem BioAssay AID504332 (National Center for Advancing Translational Sciences (NCATS), 2011)
# Hit rate of the full screen: of about 350,000 compounds, about 31,000 (8.9%) were called active. Inconclusive results, whose numbers are uncertain, are shown with a selection of clear calls. Calls follow the shape of the dose curve; as a rule, active = well fitted inhibition curve with a large enough effect; inconclusive = small, poorly fitted or top-dose-only effect; inactive = no such curve, though single readings can be large or run the other way. Potencies of inconclusive entries are doubtful fits and often do not repeat.
# Molecular target: Histone-lysine N-methyltransferase EHMT2 (Homo sapiens) (UniProt Q96KQ7)
# Experiment: qHTS Assay for Inhibitors of Histone Lysine Methyltransferase G9a; also: nearly all actives have a fitted effect of over 75% in size
# Details: G9a H3K9 monomethylation, AlphaScreen, 2 h; activity, negative = inhibition: at 59 µM (top of the series) unless noted
# How it was run: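 AlphaScreen detection with an anti-monomethyl H3K9 antibody quantified product after a 2 h room-temperature reaction containing 500 nM biotinylated H3K9 peptide, 20 µM SAM and 20 nM enzyme, which had been preincubated 15 min with compound.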
# % is scaled to controls: 0 for no effect and ±100 for the full control effect; potency is read from the fitted curve at half-maximal effect; tags tell the direction and shape of the fitted curve.
# Chain of UniProt Q96KQ7 (Q96KQ7 whole entry, looked up): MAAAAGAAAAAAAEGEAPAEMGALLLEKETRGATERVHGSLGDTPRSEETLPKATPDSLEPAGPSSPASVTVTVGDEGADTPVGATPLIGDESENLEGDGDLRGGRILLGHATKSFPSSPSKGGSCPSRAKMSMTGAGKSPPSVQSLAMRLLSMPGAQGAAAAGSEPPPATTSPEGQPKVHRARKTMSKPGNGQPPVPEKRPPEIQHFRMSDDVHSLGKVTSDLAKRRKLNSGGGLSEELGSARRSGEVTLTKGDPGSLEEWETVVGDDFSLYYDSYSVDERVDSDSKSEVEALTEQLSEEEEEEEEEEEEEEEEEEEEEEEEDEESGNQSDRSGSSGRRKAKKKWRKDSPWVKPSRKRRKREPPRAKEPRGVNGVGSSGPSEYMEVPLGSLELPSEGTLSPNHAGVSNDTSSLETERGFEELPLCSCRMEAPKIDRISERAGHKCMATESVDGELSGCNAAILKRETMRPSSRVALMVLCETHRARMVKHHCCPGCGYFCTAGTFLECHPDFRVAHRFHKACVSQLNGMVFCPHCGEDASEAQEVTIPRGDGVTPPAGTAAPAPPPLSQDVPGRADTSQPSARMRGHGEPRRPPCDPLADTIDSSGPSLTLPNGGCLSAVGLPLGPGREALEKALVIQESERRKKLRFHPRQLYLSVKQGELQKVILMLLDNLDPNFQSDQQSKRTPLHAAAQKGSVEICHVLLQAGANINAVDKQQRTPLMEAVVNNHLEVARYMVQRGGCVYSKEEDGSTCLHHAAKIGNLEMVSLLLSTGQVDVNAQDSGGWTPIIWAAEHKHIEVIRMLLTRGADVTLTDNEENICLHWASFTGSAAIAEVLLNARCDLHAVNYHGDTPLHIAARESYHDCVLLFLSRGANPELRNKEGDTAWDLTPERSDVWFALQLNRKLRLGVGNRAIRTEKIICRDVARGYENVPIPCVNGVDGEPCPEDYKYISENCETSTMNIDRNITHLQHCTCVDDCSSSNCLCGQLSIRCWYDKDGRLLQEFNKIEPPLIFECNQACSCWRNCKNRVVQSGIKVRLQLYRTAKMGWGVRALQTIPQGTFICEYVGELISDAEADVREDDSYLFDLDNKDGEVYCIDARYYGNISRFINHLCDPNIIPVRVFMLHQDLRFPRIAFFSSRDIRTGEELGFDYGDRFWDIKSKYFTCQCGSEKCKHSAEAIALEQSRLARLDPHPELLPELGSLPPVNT
SMILES,Potency,"activity, negative = inhibition"
CC(=O)Nc1ccc(C)cc1-c1nc2ccccc2n(CC(=O)c2ccc(Cl)cc2)c1=O,"inconclusive: 39.8 µM [inhibitor, partial curve, poor fit]",
Cc1ccc(N2CCn3c2nc2c3c(=O)n(CCCc3ccccc3)c(=O)n2C)cc1,"inconclusive: 22.4 µM [inhibitor, partial curve, poor fit]",
O=C(COC(=O)Cc1ccc(F)cc1)NCc1ccco1,"inconclusive: 70.8 µM [inhibitor, single point]",
Cc1c(Cl)cccc1NC(=O)Cn1nc(C(F)(F)F)c2c1CCC2,inactive,
COc1cccc(-c2ccc3nnc(SCC(=O)N4CCCC4)n3n2)c1,"inconclusive: 89.1 µM [inhibitor, partial curve, poor fit]",
CC1CCCN(C(=O)c2cccc(S(=O)(=O)Nc3cc(C(F)(F)F)ccc3Cl)c2)C1 (stereo not given),"inconclusive: 89.1 µM [inhibitor, single point]",
CN1CCN(CCCCC(=O)c2ccccc2)CC1,,inconclusive: -59.7% [inhibitor]
Cc1cc(C)cc(N(CC(=O)NC2CCCC2)C(=O)CCC(=O)Nc2cc(C)ccn2)c1,inactive,
Nn1cc(-c2ccccc2)nc1SCC(=O)N1CCN(S(=O)(=O)c2ccccc2)CC1,active: 25.1 µM,
O=C(O)c1cccc2c1C(=O)c1ccccc1C2=O,"inconclusive: 31.6 µM [inhibitor, partial curve, poor fit]",
Cc1ccc(C2=Nc3ccccc3N(CC(=O)Nc3ccccc3C)C(=O)C2)cc1C,inactive,
NCCc1nnc(SCC(=O)c2ccc(Cl)cc2)o1,"inconclusive: 100 µM [inhibitor, single point]",
CCN1C(=O)NC2=C(C(=O)c3ccccc32)C1c1ccccc1F (stereo not given),"inconclusive: 10 µM [inhibitor, partial curve, poor fit]",
CCN(CC)S(=O)(=O)c1ccc(S(=O)(=O)N2CCCC(C(=O)NC3CC3)C2)cc1 (stereo not given),inactive,
CC(C)(C)c1ccc(C(=O)NC(=S)Nc2sc3c(c2C#N)CCC3)cc1,"inconclusive: 20 µM [inhibitor, single point]",
CCN1CCOC(=O)C1CC(=O)Nc1cccc(OC)c1 (stereo not given),"inconclusive: 3.55 µM [inhibitor, full curve]",
CC(C)C(=O)Nc1ccc(C(=O)NC2CCSC2=O)cc1 (stereo not given),"inconclusive: 50.1 µM [inhibitor, partial curve, poor fit]",
Cc1ccc(-c2csc3ncnc(OCC(=O)NC(=O)NCc4ccco4)c23)cc1,active: 56.2 µM,
CCOC(=O)N1CCN(CC(=O)Nc2ccc(C)c(Br)c2)CC1,"inconclusive: 3.98 µM [inhibitor, single point]",
O=C(Cc1n[nH]c(=O)c2ccccc12)OCC(=O)c1ccc(F)c(F)c1,"inconclusive: 50.1 µM [inhibitor, partial curve, poor fit]",
COc1ccc(OC)c(NC(=O)Cn2nc(C)c3ccccc3c2=O)c1,inactive,
O=C(NNc1nc2ccccc2s1)Nc1ccc(Cl)c(Cl)c1,"inconclusive: 2.82 µM [inhibitor, partial curve, poor fit]",
FC(F)(F)c1ccccc1NC(=S)NN=C1CCCCCC1,active: 8.91 µM,

SMILES,Potency,"activity, negative = inhibition"
COCCn1c(C)c(C)c2c(NCCc3ccccc3)ncnc21,active: 28.2 µM,
CC1=C(C(=O)Nc2ccccc2)C(c2cccc(O)c2)n2nc(-c3ccccc3Cl)nc2N1 (stereo not given),inactive,
O=[N+]([O-])c1ccc(N=Nc2c(O)[nH]c3ccc(F)cc23)cc1,active: 39.8 µM,
Cc1nnc(SCc2c(Cl)cccc2[N+](=O)[O-])s1,"inconclusive: 79.4 µM [inhibitor, partial curve, poor fit]",
Cc1ccc(NC(=O)C2CCCN(S(=O)(=O)c3cccc4cccnc34)C2)c(Br)c1 (stereo not given),inactive,
O=C(Nc1ccc(N2CCCC2)cc1)c1cc(Br)ccc1Cl,active: 8.91 µM,
Cc1c2cnn(CC(=O)NCc3ccccn3)c(=O)c2c(C)n1Cc1ccc(Cl)cc1,"inconclusive: 100 µM [inhibitor, single point]",
Cc1ccccc1NC(=O)CCC(=O)N/N=C/c1cc([N+](=O)[O-])ccc1O,inactive,
CN(C)c1ccc(/C=N/NC(=O)CNC(=O)c2ccc3c(c2)OCCO3)cc1,"inconclusive: 44.7 µM [inhibitor, partial curve, poor fit]",
COc1ccc(-c2nc(CS(=O)CC(=O)NC3CCCc4ccccc43)c(C)o2)cc1OC (stereo not given),"inconclusive: 89.1 µM [inhibitor, single point]",
O=C(CNS(=O)(=O)c1ccc(F)cc1)N1CCN(c2ccccc2)CC1,"inconclusive: 35.5 µM [inhibitor, single point]",
Cc1ccccc1NC(=O)N1CCCC(c2nc(-c3ccc(F)cc3)no2)C1 (stereo not given),"inconclusive: 20 µM [inhibitor, single point]",
COc1ccc(CNC(=O)COC(=O)C2CC3C=CC2C3)cc1 (stereo not given),"inconclusive: 89.1 µM [inhibitor, partial curve, poor fit]",
CCOc1ncccc1C(=O)N(C)CC(=O)Nc1ccc(C)cc1,"inconclusive: 39.8 µM [inhibitor, single point]",
CCN(c1ccc(OC)cc1)S(=O)(=O)c1nnc(NC(=O)COc2ccc(F)cc2)s1,inactive,
COc1ccc(S(=O)(=O)NNC(N)=S)cc1,active: 15.8 µM,
CC(=O)c1cc2c(cc1NC(=O)CCn1cccc1)OCO2,"inconclusive: 56.2 µM [inhibitor, partial curve, poor fit]",
CC(C)COC(=O)C(C#N)c1nc2ccccc2nc1N1CCN(Cc2ccc3c(c2)OCO3)CC1 (stereo not given),"inconclusive: 89.1 µM [inhibitor, single point]",
CC(CN1CCCCC1)OC(=O)c1ccccc1F (stereo not given),"inconclusive: 89.1 µM [inhibitor, single point]",
CN(CC(=O)NCCc1ccc(S(N)(=O)=O)cc1)Cc1c(F)cccc1Cl,active: 50.1 µM,
O=C(NC1CCCCC1)C1c2ccccc2C(=O)N1Cc1ccc2c(c1)OCO2 (stereo not given),inactive,
O=[N+]([O-])c1ccc2c(c1)C(N1CCOCC1)/C(=C/COc1ccc(F)cc1)O2 (stereo not given),"inconclusive: 20 µM [inhibitor, single point]",
